{"source": "the supplement of paper PMC8728848", "binders": {"B1": {"name": "TES70 (Toxocara canis), Q9XYV5 (protein)", "chain": "MISVVLVAIALQISGSYAGACNSINDCGLFETCVNNMCVPDNMGCPMPCQAGQVCVPPNCVAAPAPQPVTTTTAAATTTTSARGRCNANAQCGAFEVCVNGMCQPNNAGCNPPCAANQVCVAPNCVPAPIPPPAQSTTTAPATTRAPPSCPPSWSPFSGHCYYVAVGSFLFNQASDWCTQTNSRPVWFDQSNVGTFGAELYFINVLAASRGVQTYWLGLNRQFGQWVWTNGSPLIFSNWRGSEPDGCCGGNVTCALVNYANPFGQWDDAGCGNIWRNPQGFICKKPLA"}}, "assay_in_all_cases": "glycan array binding signal (z-score within array); higher = stronger binding", "settings_in_all_cases": "glycan notation: IUPAC condensed, linker removed", "key": {"Fuc(a1-2)Gal": {"target": "Fuc(a1-2)Gal", "in_short": "(§1)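 Columns mapping to the same glycan were averaged after glycan names were converted to IUPAC-condensed notation. The data come from 3228 arrays in the Consortium for Functional Glycomics database, limited to those with an available protein sequence. Binding is reported as a within-array Z-score averaged across arrays of one protein sequence and across linkers.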"}, "Fuc(a1-2)Gal(b1-3)GalNAc": {"target": "Fuc(a1-2)Gal(b1-3)GalNAc", "in_short": "as §1"}, "[1]": {"target": "Fuc(a1-2)Gal(b1-3)GalNAc(b1-3)Gal", "in_short": "as §1"}, "[2]": {"target": "Fuc(a1-2)Gal(b1-3)GalNAc(b1-3)Gal(a1-4)Gal(b1-4)Glc", "in_short": "as §1"}, "[3]": {"target": "Fuc(a1-2)Gal(b1-3)GalNAc(b1-4)[Neu5Ac(a2-3)]Gal(b1-4)Glc", "in_short": "as §1"}, "Fuc(a1-2)Gal(b1-3)GlcNAc": {"target": "Fuc(a1-2)Gal(b1-3)GlcNAc", "in_short": "as §1"}, "[4]": {"target": "Fuc(a1-2)Gal(b1-3)[Fuc(a1-4)]GlcNAc", "in_short": "as §1"}, "Fuc(a1-2)Gal(b1-4)Glc": {"target": "Fuc(a1-2)Gal(b1-4)Glc", "in_short": "as §1"}, "Fuc(a1-2)Gal(b1-4)GlcNAc": {"target": "Fuc(a1-2)Gal(b1-4)GlcNAc", "in_short": "as §1"}, "[5]": {"target": "Fuc(a1-2)Gal(b1-4)GlcNAc(b1-3)Gal(b1-4)GlcNAc", "in_short": "as §1"}, "[6]": {"target": "Fuc(a1-2)Gal(b1-4)GlcNAc(b1-3)Gal(b1-4)GlcNAc(b1-3)Gal(b1-4)GlcNAc", "in_short": "as §1"}, "[7]": {"target": "Fuc(a1-2)Gal(b1-4)[Fuc(a1-3)]GlcNAc", "in_short": "as §1"}, "Fuc(a1-2)GlcNAc": {"target": "Fuc(a1-2)GlcNAc", "in_short": "as §1"}, "Fuc(a1-2)[Gal(a1-3)]Gal": {"target": "Fuc(a1-2)[Gal(a1-3)]Gal", "in_short": "as §1"}, "[8]": {"target": "Fuc(a1-2)[Gal(a1-3)]Gal(b1-4)GlcNAc", "in_short": "as §1"}, "[9]": {"target": "Fuc(a1-2)[Gal(a1-4)]Gal(b1-4)GlcNAc", "in_short": "as §1"}, "[10]": {"target": "Fuc(a1-2)[GalNAc(a1-3)]Gal", "in_short": "as §1"}, "[11]": {"target": "Fuc(a1-2)[GalNAc(a1-3)]Gal(b1-4)GlcNAc", "in_short": "as §1"}, "[12]": {"target": "Fuc(a1-2)[GalNAc(a1-4)]Gal(b1-4)GlcNAc", "in_short": "as §1"}, "[13]": {"target": "Fuc(a1-2)[GalNAc(b1-3)]Gal", "in_short": "as §1"}, "Fuc(a1-3)GlcNAc": {"target": "Fuc(a1-3)GlcNAc", "in_short": "as §1"}, "[14]": {"target": "Fuc(a1-3)[Gal(b1-4)]GlcNAc", "in_short": "as §1"}, "[15]": {"target": "Fuc(a1-3)[Gal(b1-4)]GlcNAc(b1-3)Gal(b1-4)[Fuc(a1-3)]GlcNAc", "in_short": "as §1"}, "[16]": {"target": "Fuc(a1-3)[Gal(b1-4)]GlcNAc(b1-3)Gal(b1-4)[Fuc(a1-3)]GlcNAc(b1-3)Gal(b1-4)[Fuc(a1-3)]GlcNAc", "in_short": "as §1"}, "[17]": {"target": "Fuc(a1-3)[Gal3S(b1-4)]GlcNAc", "in_short": "as §1"}, "Fuc(b1-3)GlcNAc": {"target": "Fuc(b1-3)GlcNAc", "in_short": "as §1"}, "Gal(a1-2)Gal": {"target": "Gal(a1-2)Gal", "in_short": "as §1"}, "Gal(a1-3)Gal": {"target": "Gal(a1-3)Gal", "in_short": "as §1"}, "Gal(a1-3)Gal(b1-4)Glc": {"target": "Gal(a1-3)Gal(b1-4)Glc", "in_short": "as §1"}, "Gal(a1-3)Gal(b1-4)GlcNAc": {"target": "Gal(a1-3)Gal(b1-4)GlcNAc", "in_short": "as §1"}}, "note": "Some of the results follow.", "data": [{"binder": "B1", "values": [{"measurement": "glycan array binding signal (z-score)", "setting": "Fuc(a1-2)Gal", "value": -0.112}, {"measurement": "glycan array binding signal (z-score)", "setting": "Fuc(a1-2)Gal(b1-3)GalNAc", "value": -0.121}, {"measurement": "glycan array binding signal (z-score)", "setting": "[1]", "value": -0.183}, {"measurement": "glycan array binding signal (z-score)", "setting": "[2]", "value": -0.134}, {"measurement": "glycan array binding signal (z-score)", "setting": "[3]", "value": -0.092}, {"measurement": "glycan array binding signal (z-score)", "setting": "Fuc(a1-2)Gal(b1-3)GlcNAc", "value": -0.112}, {"measurement": "glycan array binding signal (z-score)", "setting": "[4]", "value": -0.183}, {"measurement": "glycan array binding signal (z-score)", "setting": "Fuc(a1-2)Gal(b1-4)Glc", "value": -0.173}, {"measurement": "glycan array binding signal (z-score)", "setting": "Fuc(a1-2)Gal(b1-4)GlcNAc", "value": -0.11}, {"measurement": "glycan array binding signal (z-score)", "setting": "[5]", "value": -0.095}, {"measurement": "glycan array binding signal (z-score)", "setting": "[6]", "value": -0.144}, {"measurement": "glycan array binding signal (z-score)", "setting": "[7]", "value": -0.127}, {"measurement": "glycan array binding signal (z-score)", "setting": "Fuc(a1-2)GlcNAc", "value": -0.185}, {"measurement": "glycan array binding signal (z-score)", "setting": "Fuc(a1-2)[Gal(a1-3)]Gal", "value": -0.052}, {"measurement": "glycan array binding signal (z-score)", "setting": "[8]", "value": -0.123}, {"measurement": "glycan array binding signal (z-score)", "setting": "[9]", "value": -0.13}, {"measurement": "glycan array binding signal (z-score)", "setting": "[10]", "value": -0.12}, {"measurement": "glycan array binding signal (z-score)", "setting": "[11]", "value": -0.165}, {"measurement": "glycan array binding signal (z-score)", "setting": "[12]", "value": -0.068}, {"measurement": "glycan array binding signal (z-score)", "setting": "[13]", "value": -0.176}, {"measurement": "glycan array binding signal (z-score)", "setting": "Fuc(a1-3)GlcNAc", "value": -0.169}, {"measurement": "glycan array binding signal (z-score)", "setting": "[14]", "value": -0.156}, {"measurement": "glycan array binding signal (z-score)", "setting": "[15]", "value": -0.109}, {"measurement": "glycan array binding signal (z-score)", "setting": "[16]", "value": 0.054}, {"measurement": "glycan array binding signal (z-score)", "setting": "[17]", "value": -0.132}, {"measurement": "glycan array binding signal (z-score)", "setting": "Fuc(b1-3)GlcNAc", "value": -0.15}, {"measurement": "glycan array binding signal (z-score)", "setting": "Gal(a1-2)Gal", "value": -0.125}, {"measurement": "glycan array binding signal (z-score)", "setting": "Gal(a1-3)Gal", "value": -0.102}, {"measurement": "glycan array binding signal (z-score)", "setting": "Gal(a1-3)Gal(b1-4)Glc", "value": -0.114}, {"measurement": "glycan array binding signal (z-score)", "setting": "Gal(a1-3)Gal(b1-4)GlcNAc", "value": -0.108}]}]}
